Test [1] addresses T1, recombinant human TrkA/Fc chimera (R&D Systems) (human, UniProt P04629-2 34-407).
T1 construct: Bought reagent; also called TrkA-IgG-Fc; not shown: IgG Fc of the bought chimera
The test is described as follows: SPR (BIAcore), 25-500 nM proNGF over TrkA-IgG-Fc immobilized at 66 fmol/mm2. Here is the method: (§1) FIG. 3: Characterization of proNGF binding to p75, TrkA, and Sortilin as measured by surface plasmon resonance analysis (BIAcore). Binding of 25-500 nM proNGF was measured to 91.5 fmol/mm² immobilized p75-IgG-Fc chimeric protein (upper panel), to 66 fmol/mm² immobilized TrkA-IgG-Fc (middle panel), and to 51 fmol/mm² purified Sortilin extracellular domain (lower panel).

Test [2] deals with T2, purified human Sortilin extracellular domain (human, UniProt Q99523 78-755).
T2 construct: also called immobilized Sortilin; NTR-3
T2 sequence: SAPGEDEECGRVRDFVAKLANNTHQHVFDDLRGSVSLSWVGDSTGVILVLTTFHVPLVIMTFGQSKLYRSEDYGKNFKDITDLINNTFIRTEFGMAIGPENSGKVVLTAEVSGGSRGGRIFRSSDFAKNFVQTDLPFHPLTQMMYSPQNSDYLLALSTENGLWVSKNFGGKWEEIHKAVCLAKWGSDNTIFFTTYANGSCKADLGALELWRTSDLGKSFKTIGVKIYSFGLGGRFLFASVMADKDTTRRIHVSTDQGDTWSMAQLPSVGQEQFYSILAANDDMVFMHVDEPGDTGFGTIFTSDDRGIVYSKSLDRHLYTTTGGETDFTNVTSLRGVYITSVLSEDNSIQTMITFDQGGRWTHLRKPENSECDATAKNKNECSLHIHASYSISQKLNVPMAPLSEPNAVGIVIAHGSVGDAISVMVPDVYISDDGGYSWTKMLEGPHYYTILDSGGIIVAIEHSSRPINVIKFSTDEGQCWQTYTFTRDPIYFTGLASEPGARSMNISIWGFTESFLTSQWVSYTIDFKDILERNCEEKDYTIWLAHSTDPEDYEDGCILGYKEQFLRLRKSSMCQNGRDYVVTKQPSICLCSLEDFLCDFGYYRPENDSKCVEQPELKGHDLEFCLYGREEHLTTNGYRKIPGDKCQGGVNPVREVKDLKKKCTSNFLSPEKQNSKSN
The test is described as follows: SPR (BIAcore), 25-500 nM proNGF over Sortilin extracellular domain immobilized at 51 fmol/mm2. Here is the method:
as §1

Drawing on patent US20070264195A1 (H LUNDBECK A S, published 2007), this text covers Kd for 1 molecule.

B1: Human recombinant proNGF (produced in E. coli) (ligand)
chain: not shown
notes: The end 241 is the end of the entry as printed
Consider B1, for which the figures for the Kd in test [1] and in test [2] were about 15 nM and about 5 nM, respectively.
